In PubChem BioAssay AID624417 (National Center for Advancing Translational Sciences (NCATS), 2012):
About 6,400 (1.6%) of roughly 410,000 compounds were called active. The inconclusive results got no clear call from the source; some entries with a clear call stand among them for comparison. Calls follow the shape of the dose curve; as a rule, active = well fitted inhibition curve with a large enough effect; inconclusive = small, poorly fitted or top-dose-only effect; inactive = no such curve, though single readings can be large or run the other way. No potency is given beside an inconclusive call; the fits are too rough.

Each compound was assayed against Glucagon-like peptide 1 receptor (Homo sapiens) (UniProt P43220) (assay: qHTS of GLP-1 Receptor Inverse Agonists (Inhibition Mode)). Details: HEK293 GLP-1R CRE-luciferase, luminescence, 24 h; Potency: GLP-1R form is constitutively active unless noted; activity change, negative = inhibition: at 38.3 µM (top of the series) unless noted.
Sequence of UniProt P43220 (P43220 whole entry, looked up): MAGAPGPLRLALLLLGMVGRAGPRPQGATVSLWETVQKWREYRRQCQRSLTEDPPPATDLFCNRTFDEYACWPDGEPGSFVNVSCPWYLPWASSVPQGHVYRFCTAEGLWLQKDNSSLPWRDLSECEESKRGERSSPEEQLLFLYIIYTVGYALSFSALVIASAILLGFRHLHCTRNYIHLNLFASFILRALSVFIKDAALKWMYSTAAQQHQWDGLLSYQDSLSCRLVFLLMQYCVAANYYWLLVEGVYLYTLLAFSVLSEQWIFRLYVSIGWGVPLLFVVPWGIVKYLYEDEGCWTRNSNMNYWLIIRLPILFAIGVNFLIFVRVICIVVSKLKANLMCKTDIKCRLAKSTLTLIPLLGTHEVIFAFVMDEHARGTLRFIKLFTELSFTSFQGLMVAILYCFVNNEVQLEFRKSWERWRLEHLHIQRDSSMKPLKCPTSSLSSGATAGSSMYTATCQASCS
Procedure, shortened: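 HEK293 cells stably co-expressing constitutively active GLP-1R and a cAMP-responsive luciferase reporter were seeded in DMEM with 10% Nu serum, given compounds after 12 h, and incubated 24 h at 37 deg C. Luminescence was then read.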
% is scaled to controls: 0 for no effect and ±100 for the full control effect; potency is read from the fitted curve at half-maximal effect; tags tell the direction and shape of the fitted curve.
Also: nearly all actives have a fitted effect of over 55% in size.

Question: With `O=c1c2ccccc2nc(-c2ccccc2F)n1-c1ccccc1` as the compound, how does the Potency read?
Answer: Its Potency is inconclusive [inhibitor, full curve].

Question: How did the Potency turn out when `Cc1nc2cc(C(F)(F)F)ccc2n1C1CCN(Cc2nnnn2Cc2ccc3c(c2)OCO3)CC1` was run?
Answer: The Potency was inconclusive [inhibitor, single point].

Question: Which Potency does the source give for `CCOC(C(=O)OCC(O)CN(CC)CC)(c1ccccc1)c1ccccc1` (stereo not given) here?
Answer: The Potency was inconclusive [inhibitor, partial curve, poor fit].

Question: With `CC(c1ccc(F)cc1)n1cc(C(=O)NCc2ccc3c(c2)OCO3)nn1` (stereo not given) as the compound, how does the Potency read?
Answer: The Potency was inconclusive [inhibitor, single point].

Question: Which Potency does the source give for `COC(=O)[C@H](Cc1ccccc1)N(Cc1ccccc1)S(=O)(=O)N(Cc1ccccc1)[C@@H](Cc1ccccc1)C(=O)OC` here?
Answer: Its Potency is inconclusive [inhibitor, full curve].

Question: For `CN1c2ccc([N+](=O)[O-])cc2CC2(C(=O)NC(=O)N(c3ccccc3)C2=O)C1c1ccccc1` (stereo not given), which Potency is on record?
Answer: Its Potency is inconclusive [inhibitor, partial curve, poor fit].

Question: For `CCc1ccc(CN2CCN(Cc3cc(Br)ccc3O)CC2)cc1`, which Potency is on record?
Answer: The Potency was inconclusive [inhibitor, partial curve, poor fit].

Question: Which Potency does the source give for `CCCCN(Cc1ccccc1)C1CCN(CCc2ccccc2)CC1` here?
Answer: Its Potency is active: 10 µM [setting not given].

Question: For `CN1CCN(Cc2ccc(N)cc2)CC1`, which “activity change, negative = inhibition” value is on record?
Answer: Its value is inactive: -19.8%.

Question: Which Potency does the source give for `CCn1cc(C(=O)N2CCCCC2)c2ccccc21` here?
Answer: The Potency was inconclusive [inhibitor, single point].

Question: How did the Potency turn out when `O=C(Cc1c(Cl)cccc1Cl)N1CCN(Cc2ccccc2)CC1` was run?
Answer: Its Potency is inconclusive [inhibitor, partial curve, poor fit].

Question: With `Fc1cccc(-c2ccc3c(c2)CN(c2cccc(Cl)c2)Cc2cnnn2-3)c1` as the compound, how does the “activity change, negative = inhibition” value read?
Answer: Its value is inactive: 25.8%.

Question: Which Potency does the source give for `O=c1c(C=NCc2cccs2)c(O)n(C2CCCCC2)c(=O)n1C1CCCCC1` here?
Answer: Its Potency is inconclusive [inhibitor, full curve, poor fit].

Question: For `COC(=O)C1=C(c2cc3ccccc3o2)C[C@@H]2CC[C@H]1N2C(=O)N1CCCCC1`, which Potency is on record?
Answer: The Potency was inconclusive [inhibitor, full curve].

Question: With `CN(C(=O)CSc1nc2ccc(NC(=O)COc3ccccc3)cc2s1)c1ccccc1` as the compound, how does the Potency read?
Answer: Its Potency is inconclusive [inhibitor, partial curve, poor fit].

Question: `Cc1cc(C(=O)OC(C)C(=O)Nc2ccccc2)c(C)n1C1CC1` (stereo not given) was tested. Which “activity change, negative = inhibition” value did it give?
Answer: Its value is inactive: 10.5%.

Question: For `Cc1ccccc1-n1c(/C=C/c2ccccc2F)nc2ccccc2c1=O`, which Potency is on record?
Answer: Its Potency is inconclusive [inhibitor, full curve].

Question: Which Potency does the source give for `CCN(CC)P(=O)(Oc1cccc(C)c1)N(CC)CC` here?
Answer: Its Potency is inconclusive [inhibitor, single point].

Question: For `COC(=O)C1=C(c2ccc3ccccc3c2)C[C@@H]2CC[C@H]1N2C(=O)NCc1ccc(F)cc1`, which Potency is on record?
Answer: The Potency was inconclusive [inhibitor, single point].

Question: For `O=P(NS(=O)(=O)c1ccc(Cl)cc1)(Oc1ccccc1)Oc1ccccc1`, which Potency is on record?
Answer: Its Potency is inconclusive [inhibitor, single point].

Question: Which Potency does the source give for `C=CC1CN2CCC1CC2[C@@H](OC(=O)c1ccc(OC)cc1)c1ccnc2ccccc12` (stereo not given in full) here?
Answer: The Potency was inconclusive [inhibitor, single point].

Question: Which “activity change, negative = inhibition” value does the source give for `CN1CC[C@]23c4c5ccc(O)c4OC2[C@H](O)C=CC3[C@H]1C5` (stereo not given in full) here?
Answer: The value was inactive: 7.53%.

Question: How did the Potency turn out when `O=c1c2ccccc2nc(Cc2ccccc2)n1-c1ccc(O)cc1` was run?
Answer: The Potency was inconclusive [inhibitor, partial curve, poor fit].

Question: How did the Potency turn out when `CCOC(=O)C1(c2ccccc2)Oc2ccccc2C(c2ccc(OC)cc2)=C1C(=O)OC` (stereo not given) was run?
Answer: The Potency was inconclusive [inhibitor, single point].

Question: For `ClCCN(CCCl)c1ccc(-n2cnc3c(Cl)ncnc32)cc1`, which Potency is on record?
Answer: The Potency was inconclusive [inhibitor, partial curve, poor fit].

Question: For `CC(C)=CCSc1nnc([C@@H](N)Cc2c[nH]c3ccccc23)o1`, which Potency is on record?
Answer: The Potency was inconclusive [inhibitor, single point].

Question: For `Nc1c(C(=O)Nc2ccc(Cl)c(C(F)(F)F)c2)sc2nc3c(cc12)N1CCC3CC1`, which Potency is on record?
Answer: The Potency was inconclusive [inhibitor, full curve].

Question: `COc1cccc(NP(=O)(Oc2ccccc2Cl)Oc2ccccc2Cl)c1` was tested. Which Potency did it give?
Answer: The Potency was inconclusive [inhibitor, partial curve, poor fit].

Question: How did the Potency turn out when `C=CCN1CC[C@@]2(C)c3cc(O)ccc3CC1[C@@H]2C` was run?
Answer: The Potency was inconclusive [inhibitor, single point].

Question: How did the Potency turn out when `COc1ccc(-c2ccc3c(c2)CN(C(=O)NC2CCCCC2)Cc2cnnn2-3)cc1` was run?
Answer: The Potency was inconclusive [inhibitor, single point].

Question: `COC(=O)C1=C(c2ccc3ccccc3c2)C[C@@H]2CC[C@H]1N2C(=O)N1CCC(C)CC1` was tested. Which Potency did it give?
Answer: Its Potency is inconclusive [inhibitor, single point].

Question: How did the Potency turn out when `C=CCOc1nc(-c2ccccc2Cl)nc2ccccc12` was run?
Answer: Its Potency is inconclusive [inhibitor, single point].

Question: For `O=c1c2ccccc2nc(-c2ccco2)n1-c1ccccc1`, which Potency is on record?
Answer: Its Potency is inconclusive [inhibitor, full curve].

Question: For `COc1ccc(-c2nn(CCC#N)cc2C(=O)Nc2ccc(C(C)=O)cc2)cc1`, which “activity change, negative = inhibition” value is on record?
Answer: Its value is inactive: 26.7%.

Question: How did the Potency turn out when `CN(C)C(=O)Oc1c(Cl)cc(Cl)c2ccccc12` was run?
Answer: The Potency was active: 11.2 µM.

Question: `COc1ccc2c(c1)C(c1ccc(N(CCCl)CCCl)cc1)=NCC2` was tested. Which Potency did it give?
Answer: Its Potency is active: 10 µM [setting not given].

Question: How did the Potency turn out when `Cc1cccc(N2C(=O)CSC23C(=O)N(CC(=O)Nc2cccc(Cl)c2)c2ccccc23)c1` (stereo not given) was run?
Answer: Its Potency is inconclusive [inhibitor, single point].

Question: For `Cc1ccc(C(O)P(=O)(OCCC(C)C)c2ccc(N(C)C)cc2)cc1` (stereo not given), which Potency is on record?
Answer: The Potency was inconclusive [inhibitor, single point].

Question: Which Potency does the source give for `CC(=O)Nc1ccc(S(=O)(=O)N2CCSC2c2ccc(C)cc2)cc1` (stereo not given) here?
Answer: Its Potency is inconclusive [inhibitor, single point].

Question: `CCOP(=S)(OCC)c1ccc(N(C)C)cc1` was tested. Which “activity change, negative = inhibition” value did it give?
Answer: The value was inactive: -9.67%.
